From PubChem BioAssay AID651820 (National Center for Advancing Translational Sciences (NCATS), 2012)
Out of some 340,000 compounds screened, about 12,000 (3.5%) were called active. Inconclusive means that the source gave no clear call. Such entries were picked first, then a sample of the others. Calls follow the shape of the dose curve; as a rule, active = well fitted inhibition curve with a large enough effect; inconclusive = small, poorly fitted or top-dose-only effect, or another doubt; inactive = no such curve, though single readings can be large or run the other way. Potencies of inconclusive entries are left out as doubtful fits.
% is scaled to controls: 0 for no effect and ±100 for the full control effect; potency is read from the fitted curve at half-maximal effect; tags tell the direction and shape of the fitted curve.

Test: qHTS Assay for Inhibitors of Hepatitis C Virus (HCV)
Conditions: Huh7.5.1 HCVcc-Cre (HCVcc is cell-culture hepatitis C virus) infection, luciferase reporter, 44 h; activity change, negative = inhibition: at 41.8 µM (top of the series) unless noted
How it was run: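 1,000 cells/well; 4 h culture; + compound; + HCVcc-Cre (~0.5 moi); 44 h; luciferase substrate, RT 15 min; read 15 sec.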
With `O=C(COC(=O)c1c2c(nc3ccccc13)CCCCC2)c1ccc(Cl)s1` the Potency was active: 10 µM.
With `COc1ccc(CCNC(=O)c2cccs2)cc1OC` the Potency was “inactive”.
With `O=C(c1cc2nc(-c3ccccc3)cc(C(F)(F)F)n2n1)N1CCN2CCCC2C1` (stereo not drawn) the Potency was active: 8.91 µM.
For `CCOC(=O)/C=c1\s/c(=C(\C#N)C(N)=O)n(-c2ccccc2)c1=O`, the Potency was “inactive”.
With `Cc1ccc2cc3c(NC(=O)c4ccco4)nn(C)c3nc2c1` the Potency was inconclusive [inhibitor, partial curve].
In the case of `CC(=O)C1=C(O)C(=O)N(c2cc(C(C)(C)C)on2)C1c1ccc(C(C)C)cc1` (stereo not drawn), the Potency is reported as “inactive”.
With `CCOc1nc2c(c(-c3cccs3)c1C#N)Cc1ccccc1-2` the Potency was “inactive”.
For `CC(C)C(=O)N1CCN(c2ccccc2NC(=O)c2cccc3ccccc23)CC1`, the Potency was inconclusive [inhibitor, single point].
With `CC(C)Sc1nc(N2CCCC2)c2c(c1C#N)CC(C)(C)OC2` the Potency was inconclusive [inhibitor, single point].
For `COc1ccc(CCNC(=S)N2CCC(C(N)=O)CC2)cc1`, the Potency was inconclusive [inhibitor, single point].
For `C#CCOCCOCCOCCNc1nc(N2CCN(C(=O)[C@H](Cc3cc4ccccc4[nH]3)n3cc(C(N)CC(C)C)nn3)CC2)nc(N2CCN(C(=O)[C@H](CCC(=O)O)n3cc(C(N)[C@H](C)CC)nn3)CC2)n1` (stereo partly drawn), the Potency was inconclusive [inhibitor, single point].
With `CC(=O)C(Sc1nc(N2CCOCC2)nc(N2CCOCC2)n1)C(=O)Nc1ccccc1` (stereo not drawn) the Potency was inconclusive [inhibitor, single point].
For `O=C(NCCS(=O)(=O)N1CCN(c2ccc(F)cc2)CC1)c1ccc2c(c1)OCO2`, the Potency was “inactive”.
With `Cc1ccc(-c2nn(C)c(=O)c3ccccc23)cc1CNS(C)(=O)=O` the Potency was inconclusive [inhibitor, partial curve].
In the case of `Cc1ccc(C)c(NC(=O)Cc2nc(CCl)cs2)c1`, the Potency is reported as “inactive”.
With `O=C(Cc1csc(Nc2nc(=S)[nH]c3ccccc23)n1)NCc1ccccc1Cl` the Potency was active: 11.2 µM.
With `CCOc1ccc(NC(=O)CN(C)C(=O)c2ccc(COc3ccccc3)o2)cc1OCC` the Potency was inconclusive [inhibitor, partial curve, poor fit].
For `CCOC(=O)C(C)Oc1ccc(NC(=O)C(Cl)(Cl)Cl)cc1` (stereo not drawn), the Potency was “inactive”.
With `CCOc1ccc(N(CC(=O)NC2CCCC2)C(=O)c2ccc(C)s2)cc1` the Potency was inconclusive [inhibitor, single point].
In the case of `COc1cccc2c(=O)c(SC(F)(F)C(F)C(F)(F)F)c(C)[nH]c12` (stereo not drawn), the Potency is reported as inconclusive [inhibitor, full curve, poor fit].
For `CCCCCCc1cc2cc(C(=O)Nc3cccc(OC)c3)c(=O)oc2cc1O`, the Potency was inconclusive [inhibitor, full curve, poor fit].
In the case of `COc1cc(CNCc2cccs2)ccc1OCc1ccccc1`, the Potency is reported as inconclusive [inhibitor, partial curve].
For `COC(=O)c1cc(C(=O)c2ccccc2)n2c(=O)/c(=C\N(C)C)sc12`, the Potency was inconclusive [inhibitor, single point].
For `COc1ccccc1NC(=O)COc1ccccc1C(=O)Nc1ccccc1`, the Potency was inconclusive [inhibitor, partial curve].
In the case of `CCc1ccc(OCCCCN(C)Cc2ccccc2)cc1`, the Potency is reported as “inactive”.
In the case of `CC1CC(NC(=O)/C=C/C(=O)O)CC(C)(C)C1` (stereo not drawn), the activity change, negative = inhibition is reported as inconclusive: -40.3% [inhibitor].
With `O=C(COc1cccnc1[N+](=O)[O-])NCCc1ccccc1` the Potency was “inactive”.
For `Cc1ccccc1-c1cc(C(=O)NCc2ccc(OC(F)(F)F)cc2)nn1CC1CC(c2cccc([N+](=O)[O-])c2)=NO1` (stereo not drawn), the Potency was inconclusive [inhibitor, partial curve].
With `Cn1c(=O)c(=O)n(C)c2cc(S(=O)(=O)N3CCC(N4CCCCC4)CC3)ccc21` the Potency was “inactive”.
In the case of `CC(=O)c1c(C)[nH]c(C(=O)COc2cc(C)ccc2C(C)C)c1C`, the Potency is reported as active: 5.62 µM.
For `CCOC(=O)C1(Cc2cccc(OC)c2)CCN(C/C=C/c2ccc(OC)cc2)CC1`, the Potency was active: 8.91 µM.
With `O=C(CSCc1ccc(F)cc1)NCc1ccc2c(c1)OCO2` the Potency was inconclusive [inhibitor, single point].
With `CCOC(=O)C1CCCN(C(=O)c2ccc3c(c2)N(C)C(=O)/C(=C/c2ccccc2Cl)S3)C1` (stereo not drawn) the Potency was active: 11.2 µM.
For `COc1cc(C(=O)OCC(=O)NC(=O)c2cccn2C)ccc1OC(F)F`, the Potency was inconclusive [inhibitor, full curve].
For `Cc1cc(C)c2c3c(sc2n1)C1(CCSCC1)C(C#N)=C(N)O3`, the Potency was inconclusive [inhibitor, partial curve].
In the case of `Cc1cc(N2C3CCC2CC(O)(c2ccc(F)cc2)C3)nc(-c2ccccc2)n1` (stereo not drawn), the Potency is reported as inconclusive [inhibitor, single point].
For `CC(C)CN(C(=O)/C=C/c1nc2ccccc2s1)C1CCS(=O)(=O)C1` (stereo not drawn), the Potency was inconclusive [inhibitor, single point].
In the case of `CCCc1nc(SCC(=O)N2c3ccccc3CC2C)c2c(C)c(C)sc2n1` (stereo not drawn), the Potency is reported as inconclusive [inhibitor, partial curve].
With `COC(=O)CC1(C(=O)OC)Oc2ccc(Br)cc2C(=O)N1c1cc(Cl)cc(Cl)c1` (stereo not drawn) the Potency was inconclusive [inhibitor, single point].
With `COc1ccccc1NC(=O)c1cc2ccc(O)cc2o/c1=N\O` the Potency was inconclusive [inhibitor, single point].
In the case of `COc1ccc(N2CCN(C(=O)CSc3ncnc4c3cnn4-c3ccccc3C)CC2)cc1`, the Potency is reported as “inactive”.
For `CCOc1c2ccc(C(=O)NC3CCCc4ccccc43)cc2nn1C` (stereo not drawn), the Potency was inconclusive [inhibitor, partial curve].
With `COc1ccc(CCN2C(=O)c3[nH]nc(-c4ccccc4O)c3C2c2cccc(O)c2)cc1OC` (stereo not drawn) the Potency was inconclusive [inhibitor, partial curve].
For `O=C(O)c1cccc(S(=O)(=O)Nc2ccc3c(c2)CCC3)c1`, the Potency was “inactive”.
In the case of `N#Cc1ccc(-n2c(-c3ccccc3)nnc2-c2ccccc2)cc1C#N`, the Potency is reported as inconclusive [inhibitor, single point].
With `CCOc1ccccc1NC(=O)COC(=O)CC(C)(C)CC1=NS(=O)(=O)c2ccccc2N1` the Potency was inconclusive [inhibitor, partial curve].
With `Nc1nc(CSC(=S)N2CCN(c3ccccc3)CC2)nc(Nc2ccc(F)cc2)n1` the Potency was inconclusive [inhibitor, single point].
In the case of `Cc1nc2ccccc2c2oc(C(=O)Nc3ccc4c(c3)OCCO4)cc12`, the Potency is reported as active: 12.6 µM.
With `CC(=O)c1ccc(NC(=O)c2ccc([N+](=O)[O-])o2)cc1` the Potency was inconclusive [inhibitor, single point].
In the case of `O=C(N/N=C/c1cc(Br)cc(Cl)c1O)c1ccc2c(c1)OCO2`, the Potency is reported as active: 12.6 µM.
With `Cc1cccc(/C=C/C(=O)c2ccc(NC3=NCCCS3)cc2)c1` the Potency was active: 11.2 µM.
In the case of `CCOc1ccc(NC(=O)CN(C)CC(=O)Nc2ccc(Br)cc2F)cc1OCC`, the Potency is reported as inconclusive [inhibitor, partial curve].
With `O=[N+]([O-])c1cc(Cl)cc(/C=N/NC(=S)Nc2cc(S(=O)(=O)N3CCOCC3)ccc2Cl)c1O` the Potency was inconclusive [inhibitor, partial curve].
For `CC(Oc1cccc(Cl)c1)C(=O)Nc1nc(-c2ccccn2)cs1` (stereo not drawn), the Potency was active: 6.31 µM.
For `COc1cc(N=Cc2c(O)[nH]c3ccccc23)cc(OC)c1OC`, the Potency was inconclusive [inhibitor, full curve].
For `CCc1c(C)sc(NC(=S)N2CCN(CC)CC2)c1C(=O)OC`, the Potency was inconclusive [inhibitor, single point].
For `COc1ccc(OC)c(S(=O)(=O)Nc2ccc(O)c3ccccc23)c1`, the Potency was inconclusive [inhibitor, single point].
In the case of `O=C1C(O)=CC(=C(c2ccccc2)c2ccccc2)c2ccccc21`, the Potency is reported as inconclusive [inhibitor, partial curve].
With `Cc1[nH]c2ccc(OC(=O)N3CCOCC3)cc2c1C(=O)OC(C)C` the Potency was inconclusive [inhibitor, partial curve].
With `CCOCC(O)CNc1ccccc1` (stereo not drawn) the Potency was “inactive”.
For `CC(C)CCNC(=O)C1CCN(S(=O)(=O)c2ccc3c(c2)CC(C)N3C(=O)C2CCC2)CC1` (stereo not drawn), the Potency was “inactive”.
In the case of `CCOCCCNS(=O)(=O)c1ccc(NC(=O)c2ccc([N+](=O)[O-])cc2Cl)cc1`, the Potency is reported as inconclusive [inhibitor, single point].
With `CSc1ccc(S(=O)(=O)NCC(=O)OCC(=O)NC2(C#N)CCCCC2)cc1[N+](=O)[O-]` the Potency was inconclusive [inhibitor, single point].
For `O=C(CNC(=S)N(Cc1ccc(F)cc1)C1CCCCC1)NCC1CCCO1` (stereo not drawn), the Potency was “inactive”.
For `CCOC(=O)c1c(NC(=O)COC(=O)c2nccnc2N)sc2c1CCC2`, the Potency was inconclusive [inhibitor, partial curve].
For `O=[N+]([O-])c1ccccc1CNc1ccc(F)c(Cl)c1`, the Potency was “inactive”.
With `CCCOc1ccc2c(=O)c(-c3cc(C(=O)OC)oc3C)c(C)oc2c1` the Potency was inconclusive [inhibitor, partial curve].
In the case of `Cc1cccc(NC(=O)c2ccc(F)c(S(=O)(=O)NCc3ccco3)c2)c1`, the Potency is reported as inconclusive [inhibitor, single point].
